Earlier results on 39 sequences are cited in publication PMC11006913.

The other results are listed elsewhere or left out.

The target in the first data set is PROP1 R112Q (Homo sapiens) (UniProt O75360). As to conditions: PBM; conditions not shown; double strand, one strand shown; scale: upbm affinity estimate (log intensity, higher = more binding, comparable within an allelic series).
With CCGGCTCG [8-mer CCGGCTCG], the binding signal is 10.8.
For ACCGAAAG [8-mer ACCGAAAG], the binding signal was 10.9.
Consider CCCGAGGG [8-mer CCCGAGGG], for which the binding signal was 10.7.
In the case of CCCCGCGG [8-mer CCCCGCGG], the binding signal was 10.9.
With CCCTTCCG [8-mer CCCTTCCG], the binding signal was 10.9.
On to TGGGGGAA [8-mer TGGGGGAA], for which the binding signal is 10.9.
With CTCGGCCC [8-mer CTCGGCCC], the binding signal was 10.8.
For AGGTGGGG [8-mer AGGTGGGG], the binding signal is 10.9.
Regarding CGCAGGAC [8-mer CGCAGGAC], the binding signal was 11.
As for CGGCGCGA [8-mer CGGCGCGA], the binding signal was 11.
As for CCAAGGGG [8-mer CCAAGGGG], the binding signal was 10.8.

In another data set the target is PROP1 R99Q (Homo sapiens) (UniProt O75360). As to conditions: PBM; conditions not shown; double strand, one strand shown; scale: upbm affinity estimate (log intensity, higher = more binding, comparable within an allelic series).
On to GAGGCGAC [8-mer GAGGCGAC], for which the binding signal is 11.
On to AATGCAAT [8-mer AATGCAAT], for which the binding signal was 11.6.
In the case of CTCCGGAG [8-mer CTCCGGAG], the binding signal was 11.1.
Regarding CTCGCGCC [8-mer CTCGCGCC], the binding signal is 10.9.
For CGAGCAAG [8-mer CGAGCAAG], the binding signal was 11.
CCACGTGG [8-mer CCACGTGG]: the binding signal is 10.7.
AGCGCCGG [8-mer AGCGCCGG]: the binding signal was 11.
For CCGACGGC [8-mer CCGACGGC], the binding signal was 10.8.
CTGCCGCC [8-mer CTGCCGCC]: the binding signal is 10.9.
Consider CTAATTCA [8-mer CTAATTCA], for which the binding signal is 11.8.
GGCCAACA [8-mer GGCCAACA]: the binding signal is 10.9.
In the case of CCCGTGCC [8-mer CCCGTGCC], the binding signal is 10.8.
Regarding CAGCCCCG [8-mer CAGCCCCG], the binding signal is 11.
Regarding GGAACCCC [8-mer GGAACCCC], the binding signal was 10.9.
Consider ACAGCGCG [8-mer ACAGCGCG], for which the binding signal was 11.
Turning to GCGGCACC [8-mer GCGGCACC], the binding signal was 11.
Turning to CCCACGAC [8-mer CCCACGAC], the binding signal is 11.
With CCGCCCAC [8-mer CCGCCCAC], the binding signal was 11.
Regarding CCCCTTCG [8-mer CCCCTTCG], the binding signal was 10.8.
As to GCGACGAC [8-mer GCGACGAC], the binding signal is 10.9.
As for AGCGAGCG [8-mer AGCGAGCG], the binding signal was 10.9.
As to CTGGCGCA [8-mer CTGGCGCA], the binding signal is 11.1.
On to CCCCTCAC [8-mer CCCCTCAC], for which the binding signal is 11.
As to CGTCCGGC [8-mer CGTCCGGC], the binding signal was 10.8.
GCCCGAGC [8-mer GCCCGAGC]: the binding signal was 10.8.
As to CGCGGGGC [8-mer CGCGGGGC], the binding signal is 10.8.
Regarding CGGCGGGC [8-mer CGGCGGGC], the binding signal was 11.
For the sequence GCGGTCCC [8-mer GCGGTCCC], the binding signal was 10.9.
Consider CCGGCTCG [8-mer CCGGCTCG], for which the binding signal is 10.8.
For ACCGAAAG [8-mer ACCGAAAG], the binding signal was 11.
For the sequence CCCGAGGG [8-mer CCCGAGGG], the binding signal is 10.8.
Regarding CCCCGCGG [8-mer CCCCGCGG], the binding signal is 11.
For the sequence CCCTTCCG [8-mer CCCTTCCG], the binding signal was 10.9.
Consider TGGGGGAA [8-mer TGGGGGAA], for which the binding signal was 11.
Consider CTCGGCCC [8-mer CTCGGCCC], for which the binding signal was 10.8.
On to AGGTGGGG [8-mer AGGTGGGG], for which the binding signal was 11.
Take CGCAGGAC [8-mer CGCAGGAC]: the binding signal was 11.
Turning to CGGCGCGA [8-mer CGGCGCGA], the binding signal is 11.
As to CCAAGGGG [8-mer CCAAGGGG], the binding signal is 11.
